# This is one part of the list. Sequences were assembled here from the parent chain. Inactive controls read about 0.05.
# B1: TEV protease; numbered along this chain (parent)
# chain: MGESLFKGPRDYNPISSSICHLTNESDGHTTSLYGIGFGPFIITNKHLFRRNNGTLVVQSLHGVFKVKDTTTLQQHLVDGRDMIIIRMPKDFPPFPQKLKFREPQREERICLVTTNFQTKSMSSMVSDTSCTFPSGDGIFWKHWIQTKDGQCGSPLVSTRDGFIVGIHSASNFTNTNNYFTSVPKNFMELLTNQEAQQWVSGWRLNADSVLWGGHKVFMVKPEEPFQPVKEATQL
# Variants of: B1
# Test: raw area under fraction-flipped curve 0-4 h after induction (AUC4h, not background-subtracted), DNA-recorder readout of cleavage of the substrate (dimensionless); higher = more cleavage of the substrate by the protease variant
# Details: temperature: 34 °C; time window: 0-4 h after rhamnose induction
# 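Note: Bxb1 expression induced with 0.2% (w/v) L-rhamnose at OD600 near 0.5, cultures sampled hourly, flipped fraction per protease–substrate barcode pair counted by paired-end Illumina sequencing.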
Variant,area with substrate ENLDFQS,area with substrate ENLFFQS,area with substrate ENLLFQS,area with substrate ENLPFQS,area with substrate ENLSFQS,area with substrate ENLEFQS,area with substrate ENLHFQS,area with substrate ENLIFQS,area with substrate ENLNFQS,area with substrate ENLQFQS
MGESLFKGPRDYNPISSSICHLTNESDGHTTSLYGIGDGPFIITNKHLFRRNNGTLVVQSLHGVFKVKDTTTLQQHLVDGRDMIIIRMPKDFPPFPQKLKFREPQREERICLVTTNFQTKSMSSMVSDTSCTFPSGDGIFWKHWIQTKDGQCGSPLVSTRDGFIVGIHSASNFTNTNNYFTSVPKNFMELLTNQEAQQWVSGWRLNADSVLWGGHKVFMVKPEEPFQPVKEATQL [F38D],0.0474,0.0597,0.0348,0.0229,0.0329,,,,,
MGESLFKGPRDYNPISSSICHLTNESDGHTTSLYGIGFGPFIITNKHLFRGNNGTLVVQSLHGVFKVKDTTTLQQHLVDGRDMIIIRMPKDFPPFPQKLKFREPQREERICLVTTNFQTKSMSSMVSDTSCTFPSGDGIFWKHWIQTKDGQCGSPLVSTRDGFIVGIHSASNFTNTNNYFTSVPKNFMELLTNQEAQQWVSGWRLNADSVLWGGHKVFMVKPEEPFQPVKEATQL [R51G],0.069,,0.0936,,0.0876,0.0608,0.0613,0.103,0.0691,0.0671
MGESLFKGPRDYNPISSSICHLTNESDGHTTSLYGIGFGPFIITNKHLFRRNNFTLVVQSLHGVFKVKDTTTLQQHLVDGRDMIIIRMPKDFPPFPQKLKFREPQREERICLVTTNFQTKSMSSMVSDTSCTFPSGDGIFWKHWIQTKDGQCGSPLVSTRDGFIVGIHSASNFTNTNNYFTSVPKNFMELLTNQEAQQWVSGWRLNADSVLWGGHKVFMVKPEEPFQPVKEATQL [G54F],0.0606,0.0612,,,0.0516,0.0571,0.0554,0.0732,0.0554,
MGESLFKGPRDYNPISSSICHLTNESDGHTTSLYGIGFGPFIITNKHLFRRNNGHLVVQSLHGVFKVKDTTTLQQHLVDGRDMIIIRMPKDFPPFPQKLKFREPQREERICLVTTNFQTKSMSSMVSDTSCTFPSGDGIFWKHWIQTKDGQCGSPLVSTRDGFIVGIHSASNFTNTNNYFTSVPKNFMELLTNQEAQQWVSGWRLNADSVLWGGHKVFMVKPEEPFQPVKEATQL [T55H],0.0599,0.0827,0.0678,0.0434,0.0739,0.0617,,0.0807,0.0542,0.0339
MGESLFKGPRDYNPISSSICHLTNESDGHTTSLYGIGFGPFIITNKHLFRRNNGKLVVQSLHGVFKVKDTTTLQQHLVDGRDMIIIRMPKDFPPFPQKLKFREPQREERICLVTTNFQTKSMSSMVSDTSCTFPSGDGIFWKHWIQTKDGQCGSPLVSTRDGFIVGIHSASNFTNTNNYFTSVPKNFMELLTNQEAQQWVSGWRLNADSVLWGGHKVFMVKPEEPFQPVKEATQL [T55K],0.0471,0.086,0.0636,0.0536,0.066,0.0478,0.0714,0.0845,0.0601,0.0586
MGESLFKGPRDYNPISSSICHLTNESDGHTTSLYGIGFGPFIITNKHLFRRNNGTLVEQSLHGVFKVKDTTTLQQHLVDGRDMIIIRMPKDFPPFPQKLKFREPQREERICLVTTNFQTKSMSSMVSDTSCTFPSGDGIFWKHWIQTKDGQCGSPLVSTRDGFIVGIHSASNFTNTNNYFTSVPKNFMELLTNQEAQQWVSGWRLNADSVLWGGHKVFMVKPEEPFQPVKEATQL [V58E],0.0509,,,,,,0.0504,,,
MGESLFKGPRDYNPISSSICHLTNESDGHTTSLYGIGFGPFIITNKHLFRRNNGTLVTQSLHGVFKVKDTTTLQQHLVDGRDMIIIRMPKDFPPFPQKLKFREPQREERICLVTTNFQTKSMSSMVSDTSCTFPSGDGIFWKHWIQTKDGQCGSPLVSTRDGFIVGIHSASNFTNTNNYFTSVPKNFMELLTNQEAQQWVSGWRLNADSVLWGGHKVFMVKPEEPFQPVKEATQL [V58T],0.0651,,,,,0.0491,,,,
MGESLFKGPRDYNPISSSICHLTNESDGHTTSLYGIGFGPFIITNKHLFRRNNGTLVVQSSHGVFKVKDTTTLQQHLVDGRDMIIIRMPKDFPPFPQKLKFREPQREERICLVTTNFQTKSMSSMVSDTSCTFPSGDGIFWKHWIQTKDGQCGSPLVSTRDGFIVGIHSASNFTNTNNYFTSVPKNFMELLTNQEAQQWVSGWRLNADSVLWGGHKVFMVKPEEPFQPVKEATQL [L61S],0.0625,,0.0735,,,,0.0662,,0.0728,
MGESLFKGPRDYNPISSSICHLTNESDGHTTSLYGIGFGPFIITNKHLFRRNNGTLVVQSVHGVFKVKDTTTLQQHLVDGRDMIIIRMPKDFPPFPQKLKFREPQREERICLVTTNFQTKSMSSMVSDTSCTFPSGDGIFWKHWIQTKDGQCGSPLVSTRDGFIVGIHSASNFTNTNNYFTSVPKNFMELLTNQEAQQWVSGWRLNADSVLWGGHKVFMVKPEEPFQPVKEATQL [L61V],0.0588,0.0816,,0.0699,0.0714,,0.0751,,0.0804,
MGESLFKGPRDYNPISSSICHLTNESDGHTTSLYGIGFGPFIITNKHLFRRNNGTLVVQSLHKVFKVKDTTTLQQHLVDGRDMIIIRMPKDFPPFPQKLKFREPQREERICLVTTNFQTKSMSSMVSDTSCTFPSGDGIFWKHWIQTKDGQCGSPLVSTRDGFIVGIHSASNFTNTNNYFTSVPKNFMELLTNQEAQQWVSGWRLNADSVLWGGHKVFMVKPEEPFQPVKEATQL [G63K],0.0543,,,0.0573,,,0.0626,,0.0633,
MGESLFKGPRDYNPISSSICHLTNESDGHTTSLYGIGFGPFIITNKHLFRRNNGTLVVQSLHGVFCVKDTTTLQQHLVDGRDMIIIRMPKDFPPFPQKLKFREPQREERICLVTTNFQTKSMSSMVSDTSCTFPSGDGIFWKHWIQTKDGQCGSPLVSTRDGFIVGIHSASNFTNTNNYFTSVPKNFMELLTNQEAQQWVSGWRLNADSVLWGGHKVFMVKPEEPFQPVKEATQL [K66C],0.0669,0.0648,,0.0686,0.0475,,,0.083,,

# Same assay, conditions: temperature: 34 °C; time window: 0-4 h after rhamnose induction
Variant,area with substrate ENLRFQS,area with substrate ENLWFQS,area with substrate ENLKFQS,area with substrate ENLVFQS,area with substrate ENLMFQS,area with substrate ENLGFQS,area with substrate ENLTFQS
MGESLFKGPRDYNPISSSICHLTNESDGHTTSLYGIGFGPFIITNKHLFRGNNGTLVVQSLHGVFKVKDTTTLQQHLVDGRDMIIIRMPKDFPPFPQKLKFREPQREERICLVTTNFQTKSMSSMVSDTSCTFPSGDGIFWKHWIQTKDGQCGSPLVSTRDGFIVGIHSASNFTNTNNYFTSVPKNFMELLTNQEAQQWVSGWRLNADSVLWGGHKVFMVKPEEPFQPVKEATQL [R51G],0.0636,0.0743,,,,,
MGESLFKGPRDYNPISSSICHLTNESDGHTTSLYGIGFGPFIITNKHLFRRNNFTLVVQSLHGVFKVKDTTTLQQHLVDGRDMIIIRMPKDFPPFPQKLKFREPQREERICLVTTNFQTKSMSSMVSDTSCTFPSGDGIFWKHWIQTKDGQCGSPLVSTRDGFIVGIHSASNFTNTNNYFTSVPKNFMELLTNQEAQQWVSGWRLNADSVLWGGHKVFMVKPEEPFQPVKEATQL [G54F],0.0747,,0.0682,,,,
MGESLFKGPRDYNPISSSICHLTNESDGHTTSLYGIGFGPFIITNKHLFRRNNGKLVVQSLHGVFKVKDTTTLQQHLVDGRDMIIIRMPKDFPPFPQKLKFREPQREERICLVTTNFQTKSMSSMVSDTSCTFPSGDGIFWKHWIQTKDGQCGSPLVSTRDGFIVGIHSASNFTNTNNYFTSVPKNFMELLTNQEAQQWVSGWRLNADSVLWGGHKVFMVKPEEPFQPVKEATQL [T55K],0.0744,0.0481,0.0796,0.0681,,,
MGESLFKGPRDYNPISSSICHLTNESDGHTTSLYGIGFGPFIITNKHLFRRNNGTLVEQSLHGVFKVKDTTTLQQHLVDGRDMIIIRMPKDFPPFPQKLKFREPQREERICLVTTNFQTKSMSSMVSDTSCTFPSGDGIFWKHWIQTKDGQCGSPLVSTRDGFIVGIHSASNFTNTNNYFTSVPKNFMELLTNQEAQQWVSGWRLNADSVLWGGHKVFMVKPEEPFQPVKEATQL [V58E],,,0.0421,,0.0383,,
MGESLFKGPRDYNPISSSICHLTNESDGHTTSLYGIGFGPFIITNKHLFRRNNGTLVTQSLHGVFKVKDTTTLQQHLVDGRDMIIIRMPKDFPPFPQKLKFREPQREERICLVTTNFQTKSMSSMVSDTSCTFPSGDGIFWKHWIQTKDGQCGSPLVSTRDGFIVGIHSASNFTNTNNYFTSVPKNFMELLTNQEAQQWVSGWRLNADSVLWGGHKVFMVKPEEPFQPVKEATQL [V58T],0.0459,,0.0942,,,,
MGESLFKGPRDYNPISSSICHLTNESDGHTTSLYGIGFGPFIITNKHLFRRNNGTLVVQSSHGVFKVKDTTTLQQHLVDGRDMIIIRMPKDFPPFPQKLKFREPQREERICLVTTNFQTKSMSSMVSDTSCTFPSGDGIFWKHWIQTKDGQCGSPLVSTRDGFIVGIHSASNFTNTNNYFTSVPKNFMELLTNQEAQQWVSGWRLNADSVLWGGHKVFMVKPEEPFQPVKEATQL [L61S],,,0.0838,,,0.0721,
MGESLFKGPRDYNPISSSICHLTNESDGHTTSLYGIGFGPFIITNKHLFRRNNGTLVVQSVHGVFKVKDTTTLQQHLVDGRDMIIIRMPKDFPPFPQKLKFREPQREERICLVTTNFQTKSMSSMVSDTSCTFPSGDGIFWKHWIQTKDGQCGSPLVSTRDGFIVGIHSASNFTNTNNYFTSVPKNFMELLTNQEAQQWVSGWRLNADSVLWGGHKVFMVKPEEPFQPVKEATQL [L61V],0.0664,,,0.107,,0.0611,
MGESLFKGPRDYNPISSSICHLTNESDGHTTSLYGIGFGPFIITNKHLFRRNNGTLVVQSLHKVFKVKDTTTLQQHLVDGRDMIIIRMPKDFPPFPQKLKFREPQREERICLVTTNFQTKSMSSMVSDTSCTFPSGDGIFWKHWIQTKDGQCGSPLVSTRDGFIVGIHSASNFTNTNNYFTSVPKNFMELLTNQEAQQWVSGWRLNADSVLWGGHKVFMVKPEEPFQPVKEATQL [G63K],,0.0645,,,,,
MGESLFKGPRDYNPISSSICHLTNESDGHTTSLYGIGFGPFIITNKHLFRRNNGTLVVQSLHGVFCVKDTTTLQQHLVDGRDMIIIRMPKDFPPFPQKLKFREPQREERICLVTTNFQTKSMSSMVSDTSCTFPSGDGIFWKHWIQTKDGQCGSPLVSTRDGFIVGIHSASNFTNTNNYFTSVPKNFMELLTNQEAQQWVSGWRLNADSVLWGGHKVFMVKPEEPFQPVKEATQL [K66C],0.0689,,,,,,0.0842

# — the supplement of paper PMC12217912
